Measurements as given in the supplement of paper PMC3334620.
Over roughly 33,000 sequences, “E-score (-0.5 to 0.5)” has its median near -0.013; the highest 2% begin near 0.3. Some of the results follow.

Biological target: T1, Msn1 (UniProt P22148)
T1 sequence: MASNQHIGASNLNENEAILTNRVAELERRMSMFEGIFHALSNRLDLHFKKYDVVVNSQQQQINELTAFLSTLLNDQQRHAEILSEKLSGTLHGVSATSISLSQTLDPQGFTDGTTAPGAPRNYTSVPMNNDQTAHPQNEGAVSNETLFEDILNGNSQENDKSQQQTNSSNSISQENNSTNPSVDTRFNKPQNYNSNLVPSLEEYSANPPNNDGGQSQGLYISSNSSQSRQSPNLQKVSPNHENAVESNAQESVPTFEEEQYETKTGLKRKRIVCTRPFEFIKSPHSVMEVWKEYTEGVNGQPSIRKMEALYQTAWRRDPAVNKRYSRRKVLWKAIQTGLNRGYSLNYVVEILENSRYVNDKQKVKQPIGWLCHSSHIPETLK
Experiment: PBM E-score (8-mer binding enrichment) (E-score (-0.5 to 0.5)); higher = stronger / more preferred TF binding; most listed sequences are background and not binding sites
Settings: protein concentration: 200 nM; construct: GST-full length
Procedure, shortened: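 Detection of bound protein used fluorescent anti-GST, with scans normalised by masliner. The proteins were GST-tagged yeast transcription factors applied at about 100-200 nM to universal all-10-mer Agilent arrays made double-stranded by primer extension. Each ungapped eight-base word, pooled with its reverse complement, was scored with an E-score from the Universal PBM Analysis Suite.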

| Sequence | PBM E-score |
| --- | --- |
| AACCGCTG | -0.175 |
| AATACCAG | -0.0289 |
| CACCCCCA | -0.236 |
| CGAAAGGA | 0.0453 |
| AAAGCACG | 0.0204 |
| GCATTCTA | -0.00237 |
| AAAGCGAG | 0.116 |
| AAGACCTG | 0.00451 |
| AGTTATCC | 0.107 |
| TGCGGGAA | -0.0298 |
| CTAGCTGA | -0.066 |
| AGTAAGAA | 0.119 |
| AAGAGAAA | -0.161 |
| GAAATTGA | 0.0876 |
| GCTCAACC | -0.156 |
| ACGTGTCC | 0.455 |
| ATGGCGAG | 0.0414 |
| CAGCCGTA | -0.0663 |
| ACGTACGA | -0.00868 |
| AGTATGGA | 0.12 |
| AGCCCGTG | -0.243 |
| CACGATGA | 0.0913 |
| AATCAGGC | -0.03 |
| GTTAAAGA | 0.0691 |

| Sequence | PBM E-score |
| --- | --- |
| CAGTAGCA | -0.0223 |
| GATTGAGC | -0.0488 |
| ACCCTCCT | -0.281 |
| GGTGCAAA | -0.21 |
| ACCAGACG | -0.0174 |
| ATACCAGA | -0.00026 |
| GGGCCGGA | -0.192 |
| CTCACGGA | 0.0943 |
| ACACTGCC | 0.104 |
| ATTGGGAC | 0.29 |
| ACAGAGGG | -0.0916 |
| ATCAACCG | -0.0592 |
| CCCCAGGC | -0.3 |
| ATTGTATC | 0.0594 |
| ATAATTAT | 0.267 |
| ATAAATGC | 0.0672 |
| CTTGTGCC | -0.121 |
| ACCTTTCT | 0.0216 |
| CCTCTACC | -0.214 |
| GTGAATAA | 0.0378 |
| AGGACCCT | -0.256 |
| AGACACAA | 0.332 |
| CGTAAAAA | 0.0697 |
| ATGCTTTG | 0.0676 |

| Sequence | PBM E-score |
| --- | --- |
| TATGCATA | 0.0323 |
| ACTTTCCA | 0.178 |
| CATTTAGA | 0.153 |
| CTCAGAGA | -0.139 |
| TGGTTAAA | 0.0361 |
| GGGATTAC | -0.315 |
| ATTCGGCC | 0.0205 |
| GTCATCCA | 0.0985 |
| AAGGAACA | -0.0137 |
| AATGGCCG | -0.00322 |
| ATATCGTG | 0.131 |
| GAAGTGCC | 0.0152 |
| CGCACATC | -0.115 |
| CTCTCGTC | -0.0428 |
| AAAGAACG | 0.0378 |
| CTTTGTAA | 0.168 |
| GAGCCGGA | -0.113 |
| AGCAAGGG | -0.18 |
| AACGTACC | -0.0909 |
| ACCATTCC | 0.0147 |
| ACGGACAG | 0.175 |
| AACTCAGC | -0.0677 |
| CGTAGGGA | 0.0214 |
| CAATGAAA | 0.0415 |

| Sequence | PBM E-score |
| --- | --- |
| AGTAACCG | -0.102 |
| CGTTGGAA | -0.0918 |
| AACATTGC | -0.162 |
| CCTCCCCA | -0.193 |
| AGTTTTCA | 0.131 |
| AAGCTTCT | -0.0377 |
| AGGATGGG | -0.206 |
| AAGCAAAC | 0.0435 |
| GGGATACC | -0.242 |
| ATAGTGTA | 0.155 |
| CACAAGAA | 0.105 |
| ACGAGCTC | -0.0205 |
| GATACCAC | -0.0728 |
| TGTCTGAA | 0.364 |
| ACGCGAGT | 0.0252 |
| AGATATAG | 0.042 |
| AGGTCTAG | -0.134 |
| GGTCGACA | 0.0897 |
| CATAGCAG | -0.0677 |
| ACGAAGAT | 0.079 |
| ACACTGTC | 0.165 |
| ACATCTTA | 0.14 |
